# Experimental data reported in PubChem BioAssay AID504466 (National Center for Advancing Translational Sciences (NCATS), 2011).
# Screen size: about 330,000 compounds; about 4,200 (1.3%) were called active. This list was built around the results that the source calls inconclusive (neither active nor inactive); the mix of calls is not that of the screen. Calls follow the shape of the dose curve; as a rule, active = well fitted activation curve with a large enough effect; inconclusive = small, poorly fitted or top-dose-only effect; inactive = no such curve, though single readings can be large or run the other way. Potencies beside an inconclusive call are fits to weak or partial responses and may not hold up.
# Assay: qHTS screen for small molecules that induce genotoxicity in human embryonic kidney (HEK293T) cells expressing luciferase-tagged ELG1; also: nearly all actives have a fitted effect of over 60% in size
# Conditions: HEK293T ELG1-luciferase reporter, luminescence, 16 h; series mostly up to 46 µM
# Summary of the method: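 Genotoxicity was scored as increased ELG1-luciferase reporter signal, measured by ONE-Glo luminescence (30 min, room temperature). Compound or vehicle exposure of the HEK293T reporter cells lasted 16 hr at 37°C.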
# Potency is read from the fitted curve at half-maximal effect; tags tell the direction and shape of the fitted curve.
row,SMILES,Potency
1,Cn1ncnc2c(=O)n(C)c(=O)nc1-2,inactive
2,Oc1cccc(/C=N/NP(=S)(c2ccccc2)c2ccccc2)c1,inactive
3,Cc1cc(NC(=O)CCC(=O)N2CCC3(CC2)OCCO3)no1,inactive
4,CNC(=O)c1cccn(Cc2cccc(C(F)(F)F)c2)c1=O,"inconclusive: 20.6 µM [activator, single point]"
5,Cc1cc(OCC(=O)N2CCC(C(=O)O)(c3ccccc3)CC2)c2c(C)c(C)c(=O)oc2c1,"inconclusive: 29.1 µM [activator, partial curve, poor fit]"
6,O=C1NC(=O)C(=Cc2cn(CCOc3ccc4c(c3)OCO4)c3ccccc23)C(=O)N1,"inconclusive: 15.8 µM [activator, single point]"
7,Cc1ccc(-c2nc(N3CCOCC3)s[n+]2-c2ccccc2)cc1,"inconclusive: 29.1 µM [activator, partial curve, poor fit]"
8,Cc1c(C)c2ccc(OCC(=O)N3C[C@H]4C[C@@H](C3)c3cccc(=O)n3C4)c(C)c2oc1=O,"inconclusive: 23.1 µM [activator, single point]"
9,C=CCN=C(SCC(=O)c1ccc(Cl)cc1)c1c(O)n(C)c(=O)n(C)c1=O,"inconclusive: 29.1 µM [activator, single point]"
10,CCOc1ccc(-n2c(=O)c3c4c(sc3n(CC(=O)NCc3ccco3)c2=O)CCC4)cc1,"inconclusive: 29.1 µM [activator, partial curve, poor fit]"
11,CN1C(=O)/C(=C/c2ccc(N3CCCCCC3)o2)C(=O)NC1=S,active: 20.6 µM
12,CN(C)C(=O)Oc1ccc(-c2cn3cc(Cl)ccc3n2)cc1,"inconclusive: 7.31 µM [activator, partial curve]"
13,O=C(O)c1ccccc1NC(=O)C1C2CCC(O2)C1C(=O)O (configuration not stated),"inconclusive: 32.6 µM [activator, partial curve, poor fit]"
14,N#CC(C#N)=Cc1ccc(C=C(C#N)C#N)cc1,"inconclusive: 29.1 µM [activator, single point]"
15,CCc1ccc(N2C(=O)NC(=O)/C(=C\c3cccn3CCOc3ccc(C(C)C)cc3)C2=O)cc1,active: 10.3 µM
16,CN(C)c1ccc(CCN2CCOCC2)cc1,"inconclusive: 8.2 µM [activator, partial curve, poor fit]"
17,CN(C)C(=S)SSC(=S)N(C)C,"inconclusive: 25.9 µM [activator, partial curve, poor fit]"
18,O=C(Oc1ccc(Cl)c2ccccc12)N1CCCCC1,"inconclusive: 23.1 µM [activator, partial curve, poor fit]"
19,O=C(NCC(c1cccnc1)N1CCOCC1)Oc1ccccc1 (configuration not stated),"inconclusive: 20.6 µM [activator, partial curve, poor fit]"
20,C=CCN1C[C@@H](C)N(C(c2ccc(C(=O)N(CC)CC)cc2)c2cccc(OC)c2)C[C@@H]1C (some centres not stated),"inconclusive: 10.3 µM [activator, partial curve]"
21,O=c1[nH]c(=S)[nH]c(O)c1N=Nc1ccc(SC(F)F)cc1,active: 6.51 µM

row,SMILES,Potency
1,O=C(Nc1ccc(Cl)c(Cl)c1)c1ccco1,"inconclusive: 20.6 µM [activator, single point]"
2,C=CCN1C(=O)NC(=O)/C(=C\c2ccc(-c3ccccc3[N+](=O)[O-])o2)C1=O,"inconclusive: 29.1 µM [activator, single point]"
3,CCN1CCN(c2ccc(NC(C)=O)cc2Cl)CC1,inactive
4,O=C(Nc1ccc(Cl)cc1)N1CC2CC(C1)c1cccc(=O)n1C2 (configuration not stated),"inconclusive: 32.6 µM [activator, partial curve, poor fit]"
5,CN1CCC(C)(O)C2CCCCC21 (configuration not stated),"inconclusive: 0.517 µM [activator, full curve]"
6,CC1CCc2c(sc3nc(CSc4n[nH]c(N)n4)[nH]c(=O)c23)C1 (configuration not stated),"inconclusive: 20.6 µM [activator, partial curve, poor fit]"
7,COc1ccc2c(c1)/C(=C/c1cnc[nH]1)C(=O)N2,"inconclusive: 3.66 µM [activator, partial curve, poor fit]"
8,Cc1cc(N2CCOCC2)nc2ccc(NC(=O)CCC(=O)N3CCC4(CC3)OCCO4)cc12,inactive
9,COc1ccc(NC(=O)C2C3CCC(O3)C2C(=O)O)c(OC)c1 (configuration not stated),"inconclusive: 23.1 µM [activator, partial curve, poor fit]"
10,O=C1CN=C(c2ccc(Cl)cc2)c2oc3ccccc3c2N1,"inconclusive: 23.1 µM [activator, partial curve, poor fit]"
11,CNC(=O)Oc1ccc(-c2cn3cc(C)ccc3n2)cc1,"inconclusive: 0.411 µM [activator, partial curve]"
12,CCN(CC)c1ccc(N=Cc2c(O)n(Cc3ccccc3)c(=O)[nH]c2=O)cc1,"inconclusive: 29.1 µM [activator, partial curve, poor fit]"
13,CC(C)c1oc(=O)cc2c1[C@@H](O)[C@H]1OC(=O)[C@@]3(C)C[C@@H](O)[C@@H](O)[C@@]2(C)C13 (some centres not stated),"inconclusive: 2.06 µM [activator, partial curve, poor fit]"
14,Cc1ccc(NC(=S)NCC2CCCO2)cc1 (configuration not stated),"inconclusive: 32.6 µM [activator, partial curve, poor fit]"
15,CCCC[C@@H](C)C[C@@H](C)C(=O)N(C)[C@@H](CC(C)C)C(=O)N[C@H](C(=O)N(C)[C@H](C(=O)N1C[C@@H](O)C[C@H]1C(=O)N1C(=O)C=C[C@@H]1C)C(C)C)C(C)OC(C)=O (some centres not stated),"inconclusive: 0.0116 µM [activator, full curve, poor fit]"
16,C=CCc1ccc(OC(=O)NC2CCCCC2)c(OC)c1,"inconclusive: 23.1 µM [activator, partial curve, poor fit]"
17,O=c1[nH]cc(F)c(=O)[nH]1,"inconclusive: 13 µM [activator, partial curve, poor fit]"
18,O=C(C1CC(c2ccc(Cl)c(Cl)c2)=NO1)N1CCC2(CC1)OCCO2 (configuration not stated),active: 7.31 µM
19,CCC(COC(=O)c1cc(OC)c(OC)c(OC)c1)(c1ccccc1)N(C)C (configuration not stated),"inconclusive: 25.9 µM [activator, single point]"
20,CNC(=O)COC(=O)c1ccc(-c2nc3ccccc3s2)s1,active: 3.66 µM
21,CCN1CCN(/C=N/c2nc(C)cs2)CC1,"inconclusive: 20.6 µM [activator, partial curve]"

row,SMILES,Potency
1,C=CCN1C(=O)/C(=C/c2ccc(N3CCOCC3)o2)C(=O)NC1=S,"inconclusive: 16.4 µM [activator, partial curve, poor fit]"
2,COC(=O)C(Cc1ccc(N(CCCl)CCCl)cc1)N=Cc1ccccc1O (configuration not stated),"inconclusive: 4.11 µM [activator, single point]"
3,Cn1c(NN=O)nc2ccccc21,"inconclusive: 25.9 µM [activator, single point]"
4,COc1cc([C@@H]2c3cc4c(cc3[C@H](O)[C@H]3COC(=O)[C@H]23)OCO4)cc(OC)c1OC,"inconclusive: 0.092 µM [activator, full curve]"
5,[O-]/[N+](=C/c1cccnc1)c1ccc(Br)cc1,"inconclusive: 10.3 µM [activator, partial curve]"
6,Cc1c(C)c2ccc(OCC(=O)N3C[C@H]4C[C@@H](C3)c3cccc(=O)n3C4)cc2oc1=O,"inconclusive: 23.1 µM [activator, partial curve, poor fit]"
7,C=C1C(=O)O[C@H]2C[C@@H](C)[C@@H]3C=CC(=O)[C@@]3(C)C[C@H]12,"inconclusive: 3.66 µM [activator, single point]"
8,Cc1cc(C=C2C(=O)N(C)C(=S)N(C)C2=O)c(C)n1C1CCCC1,"inconclusive: 20.6 µM [activator, partial curve, poor fit]"
9,COc1cccc(N=Nc2c(O)[nH]c(=S)[nH]c2=O)c1,"inconclusive: 20.6 µM [activator, partial curve, poor fit]"
10,O=C1NC(=O)N(Cc2ccc(F)cc2)C(=O)/C1=C/c1cccs1,"inconclusive: 18.3 µM [activator, single point]"
11,C=CCn1c(O)c(C(C)=Nc2cc(OC)ccc2OC)c(=O)[nH]c1=O,active: 23.1 µM
12,CC(C)(C)n1cc(C(=O)c2ccccc2OCCCF)cn1,inactive
13,CC(=O)Nc1ccccc1C(=O)OCC(=O)c1ccccc1Cl,"inconclusive: 20.6 µM [activator, single point]"
14,C=CCn1c(O)c(/C=C2/C=c3ccccc3=N2)c(=O)[nH]c1=S,"inconclusive: 29.1 µM [activator, single point]"
15,O=C(Nc1cccc(Cl)c1)c1c(O)c2c(n(Cc3ccco3)c1=O)CCCC2,"inconclusive: 35.5 µM [activator, single point]"
16,OCC#CC[N+]1(CC#Cc2ccccc2)CCOCC1,"inconclusive: 20.6 µM [activator, single point]"
17,Cc1cccc(N2C(=O)NC(=O)/C(=C\c3cnn(-c4ccccc4)c3)C2=O)c1,"inconclusive: 23.1 µM [activator, partial curve, poor fit]"
18,COc1ccc(NC(=O)Cn2c3ccccc3c3nc4n(c(=O)c32)CCS4)cc1,"inconclusive: 25.9 µM [activator, partial curve, poor fit]"
19,O=C(N/N=C/c1c(O)n(C2CCCCC2)c(=S)[nH]c1=O)c1ccccc1,"inconclusive: 18.3 µM [activator, single point]"
20,O=C(Oc1ccc2cc(Br)ccc2c1)N1CCCCCC1,active: 23.1 µM
